No constants are given. Whether binding was seen depends on the method and setting. For some assays here: Binding seen in cells or lysates may run through a third protein. Some entries that bind do so weakly or less than the wild type.

For assay [1], the target named is T1, trefoil factor interactions(z) 1 (TFIZ1) protein (human (endogenous in normal gastric mucosa)) (UniProt Q86XP6).
T1 sequence: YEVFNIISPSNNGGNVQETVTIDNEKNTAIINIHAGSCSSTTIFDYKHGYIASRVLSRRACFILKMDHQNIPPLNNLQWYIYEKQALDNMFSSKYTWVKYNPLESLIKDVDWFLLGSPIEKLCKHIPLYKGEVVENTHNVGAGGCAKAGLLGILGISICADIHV
Briefly: non-reducing polyacrylamide gel electrophoresis and Western transfer; cytosol of normal human gastric mucosa electrophoresed without β-mercaptoethanol; TFIZ1 antiserum or TFF1 antibody; shows covalently bound forms.

Assay [2] concerns the target T2, trefoil protein TFF1 (human (endogenous in normal gastric mucosa)) (UniProt P04155).
T2 sequence: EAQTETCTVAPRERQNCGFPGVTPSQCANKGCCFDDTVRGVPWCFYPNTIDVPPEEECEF
Briefly: co-IP; TFF1 immunoprecipitated from normal human gastric cytosol with TFF1 monoclonal antibody conjugated to protein G Sepharose; 300 mM NaCl, 100 mM Tris-HCl pH 8.0, 0.2% Nonidet-P40, 4 °C overnight; Western transfer with TFIZ1 antiserum, non-reducing and reducing gels.

In assay [3] the target is T2, trefoil protein TFF1 (human (endogenous in normal gastric mucosa)). Briefly: non-reducing polyacrylamide gel electrophoresis and Western transfer; cytosol of normal human gastric mucosa electrophoresed without β-mercaptoethanol; TFIZ1 antiserum or TFF1 antibody; shows covalently bound forms.
Assay [4] has as its target T1, trefoil factor interactions(z) 1 (TFIZ1) protein (human (endogenous in normal gastric mucosa)). Briefly: co-IP; TFIZ1 immunoprecipitated from normal human gastric cytosol with affinity-purified TFIZ1 antiserum conjugated to protein G Sepharose; 300 mM NaCl, 100 mM Tris-HCl pH 8.0, 0.2% Nonidet-P40, 4 °C overnight; Western transfer with TFF1, TFF2 or TFF3 antibody, reducing or non-reducing gels.

B1: trefoil factor interactions(z) 1 (TFIZ1) protein (protein, UniProt Q86XP6 21-184)
chain: YEVFNIISPSNNGGNVQETVTIDNEKNTAIINIHAGSCSSTTIFDYKHGYIASRVLSRRACFILKMDHQNIPPLNNLQWYIYEKQALDNMFSSKYTWVKYNPLESLIKDVDWFLLGSPIEKLCKHIPLYKGEVVENTHNVGAGGCAKAGLLGILGISICADIHV
As to B1, the binding result in assay [1] is given as “no binding”; in assay [2], “binds”.

B2: trefoil protein TFF1 (protein, UniProt P04155 25-84)
chain: EAQTETCTVAPRERQNCGFPGVTPSQCANKGCCFDDTVRGVPWCFYPNTIDVPPEEECEF
For B2, the binding result in assay [3], in assay [1] and in assay [4] was “binds” throughout.

The record behind these values is paper PMC2632736.
